Data as given in a compilation of properties of binary mixtures (doi:10.1016/j.fluid.2019.06.006).
Some of these densities may be calculated back from excess volumes.

Assay: xn = mol fraction of the nth substance listed
Settings: 100 kPa

OC[C@@H](O)[C@@H](O)[C@H](O)[C@@H](O)CO + CC(=O)[O-].CC[n+]1ccn(C)c1
mass density [kg/m3]
Settings | x1 = 0.0941 | x1 = 0.1894 | x1 = 0.2859 | x1 = 0.483 | x1 = 0.5836
303.15 K | 1129 | – | 1184 | 1234 | –
313.15 K | 1123 | 1148 | 1178 | 1228 | 1240
323.15 K | 1117 | 1142 | 1171 | 1221 | 1232
333.15 K | 1111 | 1136 | 1165 | 1214 | 1224

CC(=O)[O-].CC[n+]1ccn(C)c1 + OC[C@H](O)[C@@H](O)[C@H](O)[C@H](O)CO
x2 = 0
Settings | mass density [kg/m3]
303.15 K | 1095
323.15 K | 1083
333.15 K | 1077
